According to a compilation of properties of binary mixtures (doi:10.1016/j.colsurfa.2018.02.014):
The densities may have been worked out from excess volumes.

Test: xn = mol fraction of the nth substance listed
Details: 100 kPa

CCCCCCCC[n+]1ccn(C)c1.O=C([O-])[C@@H]1CCCN1 + O
mass density [kg/m3]
Details	293.15 K	298.15 K	303.15 K	308.15 K	313.15 K	318.15 K
x1 = 0.012	1015.5	1013.2	1011.2	–	1004.6	1001.3
x1 = 0.0196	1023.1	1021	1018.8	1016.2	1012.4	–
x2 = 0.3768	1060.4	–	1053.9	1050.7	1047.4	1043.6
x2 = 0.5821	1066.5	1063.1	1059.8	–	1053.1	1049.4
x2 = 0.7123	1070.8	1066.7	–	–	–	1052.1
x2 = 0.8111	1070.7	1067.1	1063.4	1059.8	1056.1	1052.9
x2 = 0.8773	1062.9	1059.6	1055.6	1053	1049.8	1046.5
x2 = 0.9032	1057.6	–	1050.7	1048.1	1044.7	1041.6
x2 = 0.9331	–	1046.7	1042.9	1040.1	1036.6	1033.6
x2 = 0.9524	–	1038.4	–	1032.6	–	1026.1
x2 = 0.9664	1034.1	1031.4	1028.7	1025.9	1022.7	1018.8

CCCC[n+]1ccn(C)c1.O=C([O-])[C@@H]1CCCN1 + O
mass density [kg/m3]
Details	293.15 K	298.15 K	303.15 K	308.15 K	313.15 K	318.15 K
x1 = 0.0081	1013.8	1010.8	–	1005.9	–	1000.7
x1 = 0.0116	1020.1	1017.2	1014.1	1011.6	1008.1	1005.4
x1 = 0.0162	1027.5	1024.4	1021.8	1019	1015.1	1012.4
x2 = 0.6418	1114.8	1110.3	1106.6	1103.2	–	1097.2
x2 = 0.7818	1114.2	–	1107.4	1104.2	1100.5	1096.7
x2 = 0.8628	1108.6	1105.2	1101.5	1098.2	1094.5	1090.8
x2 = 0.9014	1097.6	1092.5	1088.6	1086.4	–	1078.1
x2 = 0.9293	1083	1078.7	1073.5	1071.8	1068.6	1065.1
x2 = 0.9459	1071	1066.7	1062.9	–	1055.9	1053.1
x2 = 0.9617	1056.5	–	–	1047.5	1043.1	1039.9
x2 = 0.9748	–	–	1034.4	1032	1028.4	1025.7
